# Source: article PMC4336329 (PLoS ONE, 2015)
# The campaign covered roughly 310,000 compounds. About 2,200 (0.71%) showed an effect of 50% or more. Effects have a minus sign here. Some of the results follow.
# Biological target: human ether-à-go-go-related gene (hERG) potassium channel (human, UniProt Q12809)
# Test: primary screen, population patch clamp on CHO cells stably expressing hERG
# human ether-à-go-go-related gene (hERG) potassium channel, sequence (Q12809 whole entry, looked up): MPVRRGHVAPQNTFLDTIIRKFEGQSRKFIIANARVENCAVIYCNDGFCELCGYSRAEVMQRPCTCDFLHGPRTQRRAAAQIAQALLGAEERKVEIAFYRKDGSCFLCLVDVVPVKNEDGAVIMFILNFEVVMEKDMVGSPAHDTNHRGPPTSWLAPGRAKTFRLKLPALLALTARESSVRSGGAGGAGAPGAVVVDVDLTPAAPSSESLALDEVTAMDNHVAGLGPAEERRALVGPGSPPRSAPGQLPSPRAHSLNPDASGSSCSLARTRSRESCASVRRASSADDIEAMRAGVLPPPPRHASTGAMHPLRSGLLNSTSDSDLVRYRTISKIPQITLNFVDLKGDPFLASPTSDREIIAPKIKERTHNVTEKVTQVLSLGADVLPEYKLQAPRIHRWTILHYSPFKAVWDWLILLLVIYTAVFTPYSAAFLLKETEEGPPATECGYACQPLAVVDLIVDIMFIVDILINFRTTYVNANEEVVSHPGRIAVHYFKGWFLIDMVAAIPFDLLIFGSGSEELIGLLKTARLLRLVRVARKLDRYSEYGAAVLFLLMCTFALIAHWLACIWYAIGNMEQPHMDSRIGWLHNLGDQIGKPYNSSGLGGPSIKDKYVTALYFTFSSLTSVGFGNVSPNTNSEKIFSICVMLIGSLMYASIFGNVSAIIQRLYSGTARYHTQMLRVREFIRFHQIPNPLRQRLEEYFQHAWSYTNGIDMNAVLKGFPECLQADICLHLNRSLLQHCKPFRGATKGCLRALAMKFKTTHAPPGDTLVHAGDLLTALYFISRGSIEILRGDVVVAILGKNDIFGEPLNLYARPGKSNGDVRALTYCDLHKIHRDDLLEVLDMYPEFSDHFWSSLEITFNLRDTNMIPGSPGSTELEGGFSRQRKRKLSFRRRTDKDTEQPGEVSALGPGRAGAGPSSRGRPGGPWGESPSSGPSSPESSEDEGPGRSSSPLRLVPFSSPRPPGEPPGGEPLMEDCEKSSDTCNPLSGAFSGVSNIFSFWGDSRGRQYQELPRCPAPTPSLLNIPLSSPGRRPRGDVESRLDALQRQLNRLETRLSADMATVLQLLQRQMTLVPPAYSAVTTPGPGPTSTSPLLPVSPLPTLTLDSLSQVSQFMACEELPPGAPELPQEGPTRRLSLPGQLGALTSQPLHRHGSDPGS
row,SMILES,"hERG current change (%, negative = inhibition) at 1uM [%]"
1,Cc1cccc(C)c1NC(=O)CN(C)C(=O)c1ccc(-n2cncn2)c([N+](=O)[O-])c1,3.34
2,COc1ccc(-c2noc(N3CCC(C(=O)N(C)c4ccccc4)CC3)n2)cc1,-7.9
3,CSCCC(NC(=O)COc1ccccc1)C(=O)N(C)CC(=O)Nc1ccc(Cl)cc1 (stereo not drawn),5.3
4,CC1=NN(C(=O)Cc2ccc([N+](=O)[O-])cc2)C(O)(C(F)(F)C(F)(F)F)C1 (stereo not drawn),5.17
5,Nc1ccc(S(=O)(=O)[N-]c2cnc3ccccc3n2)cc1.[Na+],-1.51
6,CCN(CC)c1ccc(/C=N/NC(=O)c2cnccn2)c(O)c1,4.24
7,Cc1cc(C(c2nnnn2Cc2ccccc2)N2CCOCC2)c(C)n1-c1ccc2c(c1)OCO2 (stereo not drawn),-4.64
8,CC(Sc1ncc(C(F)(F)F)cc1Cl)C(=O)NCC1CCCO1 (stereo not drawn),-1.47
9,Cc1cccc(CSc2nc3nc(C)cc(C)n3n2)c1,-3.14
10,O=C(c1ccc(CS(=O)Cc2ccc(Cl)cc2)o1)N1CCN(c2cccc(Cl)c2)CC1 (stereo not drawn),8.12
11,Cc1ccc(C)c(OCC(=O)Nc2ccc(S(=O)(=O)N3CCN(C)CC3)cc2)c1,5.65
12,CCOc1ccc(CCNC(=O)C2CCCN(c3ncnc4c3nc3n4CCCCC3)C2)cc1 (stereo not drawn),-8.63
13,Cn1cnc2c1c(=O)n(Cc1cccc(F)c1)c(=O)n2C,15.2
14,COc1ccc(CC(=O)Nc2cccc(S(=O)(=O)N3CCOCC3)c2)cc1OC,11.2
15,COc1cccc(NC(=S)NCc2cccs2)c1,10.3
16,O=C(NCCc1nc2ccccc2[nH]1)C1CCC(=O)N(CCc2cccc(F)c2)C1 (stereo not drawn),2.46
17,COc1ccc(OC)c(S(=O)(=O)NC(C)(C)C)c1,22.3
18,COc1ccc(-c2nc3nc(C)cc(C)n3n2)cc1,0.732
19,COc1cc(C)c(Br)cc1S(=O)(=O)NCc1ccncc1,14.8
20,CCOc1ccc(OCCC(=O)NNC(=O)c2cc(OC)c(OC)c(OC)c2)cc1,-24.2
21,CSc1ccccc1C(=O)Nc1cccc([N+](=O)[O-])c1,0.474
22,Cc1csc(SCCn2c(N3CCCC3)nc3c2c(=O)[nH]c(=O)n3C)n1,6.17

row,SMILES,"hERG current change (%, negative = inhibition) at 1uM [%]"
1,C[C@H]1CC[C@H]2C(=O)N3[C@H](c4ccccc4Br)[C@@H](C)CC[C@H]3C(=O)N2[C@@H]1c1ccccc1Br,16.1
2,CC(CN1C(C)CCCC1C)OC(=O)c1ccccc1F.Cl (stereo not drawn),4.71
3,COC(=O)c1ccc(C(=O)OC)c(NC(=S)N2CCN(c3ccc(F)cc3)CC2)c1,-0.255
4,CC1CCCN(C(=O)Cn2nnc(-c3ccc(S(C)(=O)=O)cc3)n2)C1 (stereo not drawn),21.2
5,C=CCOc1cccc(C2/C(=C(\O)c3ccc4c(c3)OCCO4)C(=O)C(=O)N2Cc2cccnc2)c1 (stereo not drawn),13.3
6,O=C(CCNC(=O)C1CCN(S(=O)(=O)c2ccccc2)CC1)NCCc1ccc(Cl)cc1,12.9
7,Cc1cc(C(=O)N/N=C/c2ccc(Br)o2)n[nH]1,11.7
8,Cc1ccc(NS(=O)(=O)c2cc(C(=O)NCc3cccnc3)ccc2C)cc1,-4.06
9,Cc1ccc(S(=O)(=O)NC(=O)COc2ccccc2)cc1,13.3
10,COc1ccc(OCC(=O)Nc2ccc(NC(=O)c3cccs3)cc2)cc1,9.81
11,CC(=O)c1ccc(-n2c(CCC(=O)O)ccc2-c2ccc(Br)cc2)cc1,7.99
12,Cc1cc(N(C)NC(=S)Nc2ccccc2)nc(C)n1,15.4
13,CCCCN(C)C(=O)c1cn(C)c2ccc(S(=O)(=O)N(C)C)cc2c1=O,13.3
14,C/C(=N\NC(=O)C1CCCC1)c1ccc(C(C)C)cc1,-24.6
15,CCOC(=O)C1CCN(C(=O)C2CCN(S(=O)(=O)c3ccc4ccccc4c3)CC2)CC1,0.237
16,Cc1cc(C)c[n+](-c2[nH]c(=O)sc2/C=N/N=C(\[O-])c2cccnc2)c1,3.11
17,Cc1c(NC(=O)c2ccc(NS(=O)(=O)c3ccccc3)cc2)c(=O)n(-c2ccccc2)n1C,-13.3
18,CC(NCCc1ccc(O)cc1)C(O)c1ccc(O)cc1.Cl (stereo not drawn),14.2
19,CC(=O)Nc1ccc(C(=O)OCc2ccccc2Br)cc1,14.1
20,O=C(Nc1cccc(OCC(=O)N2CCOCC2)c1)c1cccc(Cl)c1,16.1
21,Cc1nnc2n(-c3ccccc3)c(=O)c3c4c(sc3n12)CC(C)CC4 (stereo not drawn),3.72
22,CCNC(=S)N1CCN(CCN=CC2=C(O)CC(c3ccco3)CC2=O)CC1 (stereo not drawn),9.17

row,SMILES,"hERG current change (%, negative = inhibition) at 1uM [%]"
1,CCC(C)N(C(=O)CSc1nnc(NC(C)C)s1)C1CCS(=O)(=O)C1 (stereo not drawn),11.1
2,Cc1ccc(NC(=O)c2ccc([N+](=O)[O-])cc2Cl)nc1,0.895
3,CN1C(C(=O)NCC2CC2)CC2Cn3c(nc4ccccc43)C21 (stereo not drawn),9.46
4,COc1ccc(/C=C/c2cc(C(F)(F)F)on2)cc1,17.5
5,Cc1ccc2c(c1)nnn2C1CCN(C(=O)Nc2ccccc2C)CC1,3.09
6,CCOC(=O)N1CCC(N2C(=O)c3ccc(C(=O)Nc4ccc(OC)c(OC)c4)cc3C2=O)CC1,11.3
7,O=C(CCC1CCCC1)N1CCN(S(=O)(=O)Cc2ccccc2)CC1,8.09
8,CCCCOc1cccc(C(=O)NC(=S)Nc2ccc(Cl)c(C(=O)O)c2)c1,9.79
9,S=C(NCc1ccncc1)NC1CCCC1,15.9
10,COc1ccc(NS(=O)(=O)c2ccc(Cl)c(NC(=O)c3cccnc3Cl)c2)cc1,8.68
11,O=C(NCc1ccco1)c1ccc(Cn2c(=O)c3ccccc3n(Cc3ccc(Cl)cc3)c2=O)cc1,21.2
12,O=C(CCCOc1ccccc1)Nc1cccc([N+](=O)[O-])c1,10.7
13,COC(=O)CCN1CCC(C(N)=O)CC1,8.56
14,CC(=O)NCCC(=O)Nc1cc(S(=O)(=O)N2CCCCC2)ccc1Oc1cccc(C)c1,-9.98
15,CCCCC1=CC2=CC(=O)C(C)(OC(=O)C3CCCC3)C(=O)C2=CO1 (stereo not drawn),16.3
16,CCOc1ccccc1CN1CCNC(=O)C1CC(=O)N(C)Cc1nonc1C (stereo not drawn),12.2
17,Cl.O=C(O)CCCCCNc1ncnc2ccc(Br)cc12,10.4
18,COc1ccc(CN(C2CCCCC2C)S(=O)(=O)c2ccc(S(=O)(=O)N(C)C)cc2)cc1OC (stereo not drawn),7.35
19,CCOc1cc(S(=O)(=O)n2nc(C)cc2C)ccc1F,8.12
20,CC(C)N1CCN(Cc2ccc(C#CCCO)cc2)CC1CCO (stereo not drawn),10.2
21,CN(Cc1ccccc1)c1oc(-c2ccco2)nc1C#N,5.77
22,O=C(CNCCO)N1N=C(c2cccs2)CC1c1cccs1 (stereo not drawn),-3.17

row,SMILES,"hERG current change (%, negative = inhibition) at 1uM [%]"
1,CC1(C)NC(=O)N(CC(=O)OCC(=O)NC(=O)c2ccccc2)C1=O,4.44
2,O=C(CCSc1ccccc1)Nc1nccs1,7.06
3,O=C(NCc1ccc2[nH]c3c(c2c1)CCCC3)c1ccc(S(=O)(=O)N2CCOCC2)cc1,12.2
4,O=C(Nc1ccc2[nH]ncc2c1)c1ccccc1Br,11.5
5,S=c1[nH]nc(-c2ccccn2)n1/N=C/c1ccc(Br)s1,15.7
6,COCCCC1CCN(C(=O)C2CCC(=O)N(Cc3ccccc3F)C2)CC1 (stereo not drawn),-7.2
7,COC(=O)C1=CC(C(=O)c2cccs2)=NN(c2ccc(OC)cc2)C1C(=O)OC (stereo not drawn),2.54
8,O=C(Nc1ccc(Cl)cc1)c1cccc(S(=O)(=O)Nc2ccccn2)c1,-4.61
9,Cc1sc(NC(=O)CN(CCc2ccccc2)C(=O)C2CC2)c(C(N)=O)c1C,3.41
10,O=C(c1ccccc1Br)N(Cc1ccccc1)c1ccccc1,18.2
11,CC(C)c1ccc(C(=O)Nc2nnc(S(=O)(=O)N3CCCCC3)s2)cc1,11.8
12,CC1(C)Cc2cccc(OCC(=O)NCc3ccccc3F)c2O1,-2.66
13,Cc1cccc2sc(N3CCN(C(=O)c4cccs4)CC3)nc12,14
14,CCn1cc(C(=O)O)c(=O)c2cc(F)c(N3CCN(C(=S)NC(=O)c4ccccc4)CC3)cc21,16.9
15,COc1cc(NC(=O)c2c(OC)cccc2OC)ccc1NC(=O)c1cc2ccccc2o1,11.2
16,O=C1C2C3C=CC(C3)C2C(=O)N1c1ccc2ccccc2c1 (stereo not drawn),10.1
17,Cc1ccc(C(=O)CCC(=O)N(C)CC(=O)Nc2c(Cl)cccc2Cl)cc1,13.4
18,COc1ccccc1OCCCCCc1c(C)n[nH]c1C,2.03
19,COc1ccc(S(=O)(=O)NCc2ccc(F)cc2)cc1OC,14.1
20,Cc1cc2oc(C(=O)Nc3c(C)n(C)n(-c4ccccc4)c3=O)c(C)c2cc1C,2.13
21,CC1CCCN(C(=O)c2cccc(S(=O)(=O)N3CCCC3)c2)C1 (stereo not drawn),0.22
